Measured values as given in the supplement of paper PMC10126150.
Values marked as one replicate rest on one cluster of the flow cell; about a third of the high ones do not repeat.

System: ATP
Assay: switch fluorescence ratio, 500 uM ATP over buffer (Cy3 cluster intensity, sum of 5 cycles each) (fold (ratio)); higher = stronger signal-on switching upon ATP binding; sequences stand for … in TCGTCGGCAGCGTCAGATGTGTATAAGAGACAGTTTTTTTTTTTTTTTTTTTTTTTTT…TC
Conditions: aptamer strand: ATP DNA aptamer (quencher-CACCTGGGGGAGTATTGCGGAGGAAGG + anchor), 100 nM annealed; ATP concentration: 500 uM; one replicate
Procedure, shortened: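 Cy3-labelled switching-strand clusters on a modified Illumina MiSeq flow-cell were annealed to 100 nM quencher-labelled ATP aptamer, imaged in selection buffer, then imaged after 15 min with 500 uM ATP at 22 °C. Five buffer/ATP cycles ran, with NaOH stripping and re-annealing between them. The fluorescence ratio is summed target-cycle over summed buffer-cycle Cy3 intensity per cluster, averaged per switch-domain sequence. Clusters outside 100-1000 RFU were excluded.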
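Further: ATP exposure 15 min at 22 °C before imaging.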

AAAGCGGCTT showed a switch fluorescence ratio of 0.973.
TATTCTGAGG gave a switch fluorescence ratio of 1.
Work on TTTTATTTCC yielded a switch fluorescence ratio of 1.09.
Sequence TCGTTGAACT has a switch fluorescence ratio of 0.986.
Work on CTGGGTGCTA yielded a switch fluorescence ratio of 1.05.
Work on TGAGAATACT yielded a switch fluorescence ratio of 1.03.
Sequence CAGGCCTTCC has a switch fluorescence ratio of 2.66.
CGCGGGCCG was tested, and the switch fluorescence ratio was 1.
GATTTGTGA showed a switch fluorescence ratio of 1.04.
Work on GTCTTAAACC yielded a switch fluorescence ratio of 1.07.
CGGTTAGCGC showed a switch fluorescence ratio of 0.956.
For AGAGATTCCC, the switch fluorescence ratio was 1.03.
GGTGAATAAC showed a switch fluorescence ratio of 0.999.
TTTTAGCGCG was tested, and the switch fluorescence ratio was 0.972.
Work on GATATCGCAA yielded a switch fluorescence ratio of 5.64.
GATAGGTGTA showed a switch fluorescence ratio of 0.964.
With GATATTATAG the switch fluorescence ratio was 0.989.
With ATAGTCGGCG the switch fluorescence ratio was 0.943.
In the case of TCTGAAGGCT, the switch fluorescence ratio is reported as 1.05.
Work on ATTTCAGA yielded a switch fluorescence ratio of 0.992.
In the case of CATGAGTCAG, the switch fluorescence ratio is reported as 0.927.
GCATATTGGT gave a switch fluorescence ratio of 0.977.
AAAGTCGCGA was tested, and the switch fluorescence ratio was 1.02.
In the case of GCTTGTGCTT, the switch fluorescence ratio is reported as 1.01.
CTTGCAGGCA showed a switch fluorescence ratio of 1.03.
Work on ACCGTCACCA yielded a switch fluorescence ratio of 1.3.
CCAGTCCAGC gave a switch fluorescence ratio of 1.03.
TTAAACTGAA gave a switch fluorescence ratio of 1.01.
With AGTGTGAATC the switch fluorescence ratio was 1.05.
ACTCCGAGAT gave a switch fluorescence ratio of 7.01.
AACCCCTGAT showed a switch fluorescence ratio of 1.03.
With GTCGGAATGG the switch fluorescence ratio was 1.1.
Work on CGGTTCCGTC yielded a switch fluorescence ratio of 1.03.
TGTAATTGAG showed a switch fluorescence ratio of 0.993.
For GGAGGCGTAC, the switch fluorescence ratio was 1.08.
ACCCTCACTA was tested, and the switch fluorescence ratio was 1.19.
For GTTAGTTCTT, the switch fluorescence ratio was 0.976.
ACCGTCCTTC was tested, and the switch fluorescence ratio was 1.09.
CAAAAAACCC gave a switch fluorescence ratio of 1.03.
TAATGTCATG gave a switch fluorescence ratio of 0.994.
GTTGAACGTT showed a switch fluorescence ratio of 0.995.
With TTTTGGACTT the switch fluorescence ratio was 1.
For ATGATGGGAC, the switch fluorescence ratio was 1.01.
With TTAGATGGT the switch fluorescence ratio was 1.17.
For CGGTGCAAAC, the switch fluorescence ratio was 4.08.
In the case of TCGTACTTTC, the switch fluorescence ratio is reported as 1.07.
For GTGCAATCAG, the switch fluorescence ratio was 1.11.
In the case of AGCCGATTAA, the switch fluorescence ratio is reported as 0.971.
CTCGTCGTTT showed a switch fluorescence ratio of 0.972.
AATGGCAGT was tested, and the switch fluorescence ratio was 0.961.
CGGGGCGGAG gave a switch fluorescence ratio of 1.02.
GAGCCTATGG showed a switch fluorescence ratio of 1.04.
For TGGGATGACT, the switch fluorescence ratio was 0.982.
TTGGCTGCAT gave a switch fluorescence ratio of 1.01.
With CGTCCGTCAG the switch fluorescence ratio was 2.03.
Work on CTATATCCTT yielded a switch fluorescence ratio of 1.
AACGTTCGA was tested, and the switch fluorescence ratio was 1.05.
Work on CGGTAAACCT yielded a switch fluorescence ratio of 2.38.
Work on AGACTCCTCT yielded a switch fluorescence ratio of 1.05.
Work on TTCCTTATCT yielded a switch fluorescence ratio of 1.
Work on TTAGCTGAGC yielded a switch fluorescence ratio of 1.03.
In the case of AACTGTCGGT, the switch fluorescence ratio is reported as 1.01.
TACTGTCTCT showed a switch fluorescence ratio of 0.975.
For CGTAGCTGGG, the switch fluorescence ratio was 1.13.
AAAAGTTCCG showed a switch fluorescence ratio of 1.03.
In the case of CATCTGTCC, the switch fluorescence ratio is reported as 1.1.
In the case of GAACCAGTTC, the switch fluorescence ratio is reported as 0.988.
Work on GGATATAGGT yielded a switch fluorescence ratio of 1.
CTAGTTCCTA showed a switch fluorescence ratio of 1.05.
Sequence TCGGACAAGC has a switch fluorescence ratio of 1.11.
TGTTCAAAGC showed a switch fluorescence ratio of 0.936.
Work on GAGGTCCCGG yielded a switch fluorescence ratio of 1.01.
For TTGGCTAGCG, the switch fluorescence ratio was 0.968.
GCTGGCTGCA was tested, and the switch fluorescence ratio was 1.02.
In the case of TAGAGCGGAG, the switch fluorescence ratio is reported as 1.04.
Work on TGAGGGTCTC yielded a switch fluorescence ratio of 0.98.
TGATACGGTA showed a switch fluorescence ratio of 1.09.
Work on CAGACTACGG yielded a switch fluorescence ratio of 1.02.
For GTGAAAACAG, the switch fluorescence ratio was 1.06.
For GCATGTTCGT, the switch fluorescence ratio was 0.985.
With ATTCCTCGGG the switch fluorescence ratio was 1.15.
With TTAAGCATCC the switch fluorescence ratio was 1.18.
In the case of CTCGATAACA, the switch fluorescence ratio is reported as 1.01.
Sequence ATTTGTAGGG has a switch fluorescence ratio of 0.986.
CTGACGGGCC gave a switch fluorescence ratio of 1.33.
Sequence CACTATTGCA has a switch fluorescence ratio of 1.04.
CTGGCGTTGC showed a switch fluorescence ratio of 2.54.
ACCTTAAACT was tested, and the switch fluorescence ratio was 1.05.
TAGGAGAGTC was tested, and the switch fluorescence ratio was 1.02.
For TAACGAGGGT, the switch fluorescence ratio was 1.1.
AAAAGAATAG showed a switch fluorescence ratio of 0.959.
In the case of GCCTGTCCGA, the switch fluorescence ratio is reported as 1.05.
ATGAAGTGTA was tested, and the switch fluorescence ratio was 0.967.
For GTTAAAACGC, the switch fluorescence ratio was 0.978.
AAGGAGCTTT gave a switch fluorescence ratio of 0.998.
TCTTGCAGAT gave a switch fluorescence ratio of 1.01.
TCGCCTGTCT gave a switch fluorescence ratio of 1.02.
Sequence GACTTGCTCC has a switch fluorescence ratio of 1.35.
TTGAAGCACC was tested, and the switch fluorescence ratio was 1.35.
Work on GAGGGATAGT yielded a switch fluorescence ratio of 0.943.
For CCGGAACCAT, the switch fluorescence ratio was 1.14.
ACCATGGTCA gave a switch fluorescence ratio of 0.975.
TACATTGGGT showed a switch fluorescence ratio of 0.979.
In the case of CTGTCACAAA, the switch fluorescence ratio is reported as 1.02.
Work on TGCCATCTCC yielded a switch fluorescence ratio of 1.18.
With CAACCTGGGC the switch fluorescence ratio was 1.07.
For GAACTCCGAG, the switch fluorescence ratio was 1.43.
GGGTCGAGTA gave a switch fluorescence ratio of 1.11.
TACGAATGCT was tested, and the switch fluorescence ratio was 1.01.
ATTAGTAGCG was tested, and the switch fluorescence ratio was 0.982.
Sequence GCGTGCTTTC has a switch fluorescence ratio of 1.04.
ACGGGTCGCT was tested, and the switch fluorescence ratio was 0.994.
CAGTAGCCGC showed a switch fluorescence ratio of 1.07.
Work on CATATGGCAT yielded a switch fluorescence ratio of 0.986.
TCCGTCATTT gave a switch fluorescence ratio of 1.16.
Work on CGGCTCCGGA yielded a switch fluorescence ratio of 1.03.
TCAAGCCAGA gave a switch fluorescence ratio of 1.03.
In the case of AGAATGATGT, the switch fluorescence ratio is reported as 1.01.
In the case of CTATCGGAGA, the switch fluorescence ratio is reported as 1.01.
For GGTTATACCT, the switch fluorescence ratio was 1.04.
Sequence ACTTCTGCCT has a switch fluorescence ratio of 1.04.
In the case of CAGGTCCCGA, the switch fluorescence ratio is reported as 0.985.
For CACGGGCACC, the switch fluorescence ratio was 1.06.
With CGGATGCTCC the switch fluorescence ratio was 1.08.
TTGTAGGCT gave a switch fluorescence ratio of 1.06.
Work on CGTAGCGCCC yielded a switch fluorescence ratio of 1.34.
For GCCCCGTAGA, the switch fluorescence ratio was 1.09.
For TGCACGGACT, the switch fluorescence ratio was 1.19.
TGTCATTGCG showed a switch fluorescence ratio of 1.01.
In the case of CATATTTAAA, the switch fluorescence ratio is reported as 0.978.
Sequence ACTCAGACA has a switch fluorescence ratio of 1.03.
GACTGATGCA was tested, and the switch fluorescence ratio was 0.967.
In the case of TAGCTCGCGC, the switch fluorescence ratio is reported as 0.987.
TTTACAACGG was tested, and the switch fluorescence ratio was 1.
GGTTCCGTTG gave a switch fluorescence ratio of 1.
Sequence TGCCGTTAAC has a switch fluorescence ratio of 1.01.
Sequence GACTTTACGT has a switch fluorescence ratio of 1.12.
With TATATTTGCT the switch fluorescence ratio was 0.963.
In the case of ATATGGAGCC, the switch fluorescence ratio is reported as 0.974.
Work on TTGCTACGCA yielded a switch fluorescence ratio of 1.01.
In the case of ACTCTGCCAC, the switch fluorescence ratio is reported as 4.87.
Work on ATTGAGTTAA yielded a switch fluorescence ratio of 1.
GTGAGCAACT gave a switch fluorescence ratio of 1.03.
GCTGAAGTGC gave a switch fluorescence ratio of 0.958.
GGCTCCGTGG showed a switch fluorescence ratio of 1.11.
In the case of GACGAAACGG, the switch fluorescence ratio is reported as 1.09.
AGGCAGTATG gave a switch fluorescence ratio of 1.08.
For TAGAAAAGAT, the switch fluorescence ratio was 1.05.
For AGTATAAGAT, the switch fluorescence ratio was 0.966.
TTAAGGAACA showed a switch fluorescence ratio of 1.03.
CAAGTTTCG showed a switch fluorescence ratio of 0.958.
For TCAAGTCGGG, the switch fluorescence ratio was 1.
Sequence GATCTATTAC has a switch fluorescence ratio of 1.
With GCAAATTCCT the switch fluorescence ratio was 1.05.
Sequence GATGCTTTTG has a switch fluorescence ratio of 1.01.
Work on CGACGATCTT yielded a switch fluorescence ratio of 1.01.
TCCCTGACCT gave a switch fluorescence ratio of 1.36.
GGCGGTCGGG was tested, and the switch fluorescence ratio was 1.
For GTTGCGCAGT, the switch fluorescence ratio was 1.04.
TGCCAGCACG showed a switch fluorescence ratio of 1.01.
In the case of TGGATCTCGT, the switch fluorescence ratio is reported as 1.
Work on AACTACGAGG yielded a switch fluorescence ratio of 1.04.
With TCAGCTAATC the switch fluorescence ratio was 1.39.
In the case of TTATAACATG, the switch fluorescence ratio is reported as 0.995.
TAAGGTGTTC showed a switch fluorescence ratio of 1.02.
For CTGTTAGTGT, the switch fluorescence ratio was 1.02.
GAAGGACTAT gave a switch fluorescence ratio of 0.992.
TCGTTCGTTG showed a switch fluorescence ratio of 1.01.
With ACGGTTGGTC the switch fluorescence ratio was 0.977.
AAGTCACCGA was tested, and the switch fluorescence ratio was 1.03.
Work on CGGGTGGGCG yielded a switch fluorescence ratio of 1.06.
CAAGGGAAAC gave a switch fluorescence ratio of 1.04.
Sequence CACATAGTGT has a switch fluorescence ratio of 1.
AGAGCTGGAT gave a switch fluorescence ratio of 1.01.
ATACGCTGTG showed a switch fluorescence ratio of 1.03.
In the case of AGGGGCTGCT, the switch fluorescence ratio is reported as 1.01.
For ACAATGCACG, the switch fluorescence ratio was 1.09.
CATAGTGCCA was tested, and the switch fluorescence ratio was 1.01.
Work on ACTCTAGATA yielded a switch fluorescence ratio of 1.23.
With GCAGGTCACC the switch fluorescence ratio was 1.04.
In the case of GAAGACCCGC, the switch fluorescence ratio is reported as 1.07.
TAAGGATTCG showed a switch fluorescence ratio of 1.
TTCATACTAC gave a switch fluorescence ratio of 1.1.
CCGTGTGCGG gave a switch fluorescence ratio of 0.979.
Work on AAAGCATCCC yielded a switch fluorescence ratio of 1.07.
GGAGAAA gave a switch fluorescence ratio of 0.989.
TTAGCGGTCT was tested, and the switch fluorescence ratio was 1.05.
In the case of ACGACGGGCC, the switch fluorescence ratio is reported as 1.1.
Sequence TTAACTATGC has a switch fluorescence ratio of 1.01.
GCCCCGCCAA was tested, and the switch fluorescence ratio was 1.1.
GGTTTGTCCT showed a switch fluorescence ratio of 0.987.
Sequence AAGATATGC has a switch fluorescence ratio of 1.02.
Work on CGGCTGGAGA yielded a switch fluorescence ratio of 0.991.
AAATATTTTG gave a switch fluorescence ratio of 1.02.
Sequence GTTGTGATGG has a switch fluorescence ratio of 0.961.
Work on AAGTGCCTTT yielded a switch fluorescence ratio of 0.923.
With AGAGGGTCAG the switch fluorescence ratio was 0.983.
GGCCGCTATT showed a switch fluorescence ratio of 1.31.
GCCAAATAAT gave a switch fluorescence ratio of 0.969.
With GCTAATTCTA the switch fluorescence ratio was 1.
